Data as given in the supplement of paper PMC9927326.

Tests used:
Assay in all cases: CLSI broth microdilution.
caspofungin = compound: CC[C@H](C)C[C@H](C)CCCCCCCCC(=O)N[C@H]1C[C@@H](O)[C@@H](NCCN)NC(=O)[C@@H]2[C@@H](O)CCN2C(=O)[C@H]([C@H](O)CCN)NC(=O)[C@H]([C@H](O)[C@@H](O)c2ccc(O)cc2)NC(=O)[C@@H]2C[C@@H](O)CN2C(=O)[C@H]([C@@H](C)O)NC1=O [caspofungin]
voriconazole = compound: C[C@@H](c1ncncc1F)[C@](O)(Cn1cncn1)c1ccc(F)cc1F [voriconazole]
anidulafungin = compound: CCCCCOc1ccc(-c2ccc(-c3ccc(C(=O)N[C@H]4C[C@@H](O)[C@@H](O)NC(=O)[C@@H]5[C@@H](O)[C@@H](C)CN5C(=O)[C@H]([C@@H](C)O)NC(=O)[C@H]([C@H](O)[C@@H](O)c5ccc(O)cc5)NC(=O)[C@@H]5C[C@@H](O)CN5C(=O)[C@H]([C@@H](C)O)NC4=O)cc3)cc2)cc1 [anidulafungin]
fluconazole = compound: OC(Cn1cncn1)(Cn1cncn1)c1ccc(F)cc1F [fluconazole]
amphotericin B = compound: C[C@@H]1[C@H](O)[C@@H](C)/C=C/C=C/C=C/C=C/C=C/C=C/C=C/[C@H](O[C@@H]2O[C@H](C)[C@@H](O)[C@H](N)[C@@H]2O)C[C@@H]2O[C@](O)(C[C@@H](O)C[C@@H](O)[C@H](O)CC[C@@H](O)C[C@@H](O)CC(=O)O[C@H]1C)C[C@H](O)[C@H]2C(=O)O [amphotericin B]
posaconazole = compound: CC[C@@H]([C@H](C)O)n1ncn(-c2ccc(N3CCN(c4ccc(OC[C@@H]5CO[C@@](Cn6cncn6)(c6ccc(F)cc6F)C5)cc4)CC3)cc2)c1=O [posaconazole]
micafungin = compound: CCCCCOc1ccc(-c2cc(-c3ccc(C(=O)N[C@H]4C[C@@H](O)[C@@H](O)NC(=O)[C@@H]5[C@@H](O)[C@@H](C)CN5C(=O)[C@H]([C@H](O)CC(N)=O)NC(=O)[C@H]([C@H](O)[C@@H](O)c5ccc(O)c(OS(=O)(=O)O)c5)NC(=O)[C@@H]5C[C@@H](O)CN5C(=O)[C@H]([C@@H](C)O)NC4=O)cc3)no2)cc1 [micafungin]
itraconazole = compound: CCC(C)n1ncn(-c2ccc(N3CCN(c4ccc(OCC5COC(Cn6cncn6)(c6ccc(Cl)cc6Cl)O5)cc4)CC3)cc2)c1=O [itraconazole]
flucytosine = compound: Nc1[nH]c(=O)ncc1F [flucytosine]

Test System: Candida albicans isolate 337 (Erg11p: V437I,E266D, Fur1p: WT, Tac1p: N896S,I895T,M170V)
- MIC (caspofungin): 0.03 mg/L [S]
- MIC (voriconazole): ≤ 0.008 mg/L [S]
- MIC (anidulafungin): 0.06 mg/L [S]
- MIC (fluconazole): 0.5 mg/L [S]
- MIC (amphotericin B): 0.5 mg/L [S]
- MIC (posaconazole): 0.015 mg/L [S]
- MIC (micafungin): 0.015 mg/L [S]
- MIC (itraconazole): 0.06 mg/L [S]
- MIC (flucytosine): ≤ 0.06 mg/L [S]

Test System: Candida albicans isolate 16 (Erg11p: A114V, Fur1p: WT, Tac1p: N896S)
- MIC (caspofungin): 0.03 mg/L [S]
- MIC (voriconazole): ≤ 0.008 mg/L [S]
- MIC (anidulafungin): 0.06 mg/L [S]
- MIC (fluconazole): 0.25 mg/L [S]
- MIC (amphotericin B): 0.25 mg/L [S]
- MIC (posaconazole): ≤ 0.008 mg/L [S]
- MIC (micafungin): 0.015 mg/L [S]
- MIC (itraconazole): ≤ 0.015 mg/L [S]
- MIC (flucytosine): ≤ 0.06 mg/L [S]

Test System: Candida albicans isolate 192 (Erg11p: V488I,E266D, Fur1p: WT, Tac1p: N896S,I558V,A377V,F189S,N174D,M170I,K87N)
- MIC (caspofungin): 0.03 mg/L [S]
- MIC (voriconazole): ≤ 0.008 mg/L [S]
- MIC (anidulafungin): 0.06 mg/L [S]
- MIC (fluconazole): 0.5 mg/L [S]
- MIC (amphotericin B): 0.25 mg/L [S]
- MIC (posaconazole): 0.015 mg/L [S]
- MIC (micafungin): 0.015 mg/L [S]
- MIC (itraconazole): 0.03 mg/L [S]
- MIC (flucytosine): ≤ 0.06 mg/L [S]

Test System: Candida albicans isolate 189 (Erg11p: WT, Fur1p: R101C, Tac1p: WT)
- MIC (caspofungin): 0.015 mg/L [S]
- MIC (voriconazole): ≤ 0.008 mg/L [S]
- MIC (anidulafungin): ≤ 0.015 mg/L [S]
- MIC (fluconazole): 0.25 mg/L [S]
- MIC (amphotericin B): 0.5 mg/L [S]
- MIC (posaconazole): 0.015 mg/L [S]
- MIC (micafungin): 0.015 mg/L [S]
- MIC (itraconazole): 0.03 mg/L [S]
- MIC (flucytosine): 0.25 mg/L [S]

Test System: Candida albicans isolate 292 (Erg11p: WT, Fur1p: WT, Tac1p: I558V,A377V,F189S,N174D,M170I,K87N)
- MIC (caspofungin): 0.03 mg/L [S]
- MIC (voriconazole): ≤ 0.008 mg/L [S]
- MIC (anidulafungin): ≤ 0.015 mg/L [S]
- MIC (fluconazole): 0.25 mg/L [S]
- MIC (amphotericin B): 0.25 mg/L [S]
- MIC (posaconazole): 0.015 mg/L [S]
- MIC (micafungin): 0.015 mg/L [S]
- MIC (itraconazole): ≤ 0.015 mg/L [S]
- MIC (flucytosine): ≤ 0.06 mg/L [S]

Test System: Candida albicans isolate 79 (Erg11p: WT, Fur1p: WT, Tac1p: N896S)
- MIC (caspofungin): 0.03 mg/L [S]
- MIC (voriconazole): ≤ 0.008 mg/L [S]
- MIC (anidulafungin): ≤ 0.015 mg/L [S]
- MIC (fluconazole): 0.25 mg/L [S]
- MIC (amphotericin B): 0.5 mg/L [S]
- MIC (posaconazole): 0.015 mg/L [S]
- MIC (micafungin): ≤ 0.008 mg/L [S]
- MIC (itraconazole): 0.03 mg/L [S]
- MIC (flucytosine): ≤ 0.06 mg/L [S]

Test System: Candida albicans isolate 255 (Erg11p: E266D, Fur1p: WT, Tac1p: N896S,Q775*,I558V,A377V,K87N)
- MIC (caspofungin): 0.03 mg/L [S]
- MIC (voriconazole): ≤ 0.008 mg/L [S]
- MIC (anidulafungin): 0.06 mg/L [S]
- MIC (fluconazole): 0.5 mg/L [S]
- MIC (amphotericin B): 0.25 mg/L [S]
- MIC (posaconazole): 0.03 mg/L [S]
- MIC (micafungin): ≤ 0.008 mg/L [S]
- MIC (itraconazole): 0.06 mg/L [S]
- MIC (flucytosine): ≤ 0.06 mg/L [S]

Test System: Candida albicans isolate 316 (Erg11p: WT, Fur1p: WT, Tac1p: A377V,F189S,N174D,M170I,K87N)
- MIC (caspofungin): 0.06 mg/L [S]
- MIC (voriconazole): ≥ 8 mg/L [R]
- MIC (anidulafungin): 0.12 mg/L [S]
- MIC (fluconazole): ≥ 256 mg/L [R]
- MIC (amphotericin B): 0.5 mg/L [S]
- MIC (posaconazole): ≥ 8 mg/L [R]
- MIC (micafungin): ≤ 0.008 mg/L [S]
- MIC (itraconazole): ≥ 16 mg/L [R]
- MIC (flucytosine): 0.12 mg/L [S]

MIC of clinical C. albicans isolates, CLSI broth microdilution (ranges and time not stated); higher = less susceptible. Call: susceptible or wild type [S] / resistant or non-wild type [R] by CLSI breakpoints or epidemiological cut-offs; intermediate and dose-dependent carry no call here (the paper groups them with resistant). '<=' and '>=' mark each drug's lowest and highest value, inferred; the source prints them plain. Isolates are numbered anew.
